Substrate in series [1]: N[C@@H](CCC(=O)N[C@@H](CSSC[C@H](N)C(=O)O)C(=O)NCC(=O)O)C(=O)O
The series can be described thus: purified protein, by the assay type. Conditions: pH 8.0, 25.0 °C. On the set-up: GSSCys oxidoreductase assay, GR-coupled NADPH consumption at 340 nm, apparent Km from Hanes plots. How it is done: (§1) Steady-state kinetics of wild-type and mutant ScGrx7 and HsGrx5^C122S in the GSSCys and [compound left out] assays were determined spectrophotometrically by monitoring the consumption of NADPH at 340 nm and 25 °C using a thermostated Jasco V-650 UV/vis spectrophotometer[11],[19],[25]. Fresh stock solutions of NADPH, GSH, GR, and GSSCys or [compound left out] were prepared in assay buffer containing 0.1 M Tris/HCl, 1 mM EDTA, pH 8.0 before each experiment. Both assays were performed with 0.1 mM NADPH and 1 U/ml ScGR. The following final protein concentrations were used for Y110F/H/A (5–150 nM), D144A/K (10 nM), E147A/K (10 nM), R153A/E (25–50 nM), ScGrx7^WP (20 nM), ScGrx7^loop (up to 1.4 µM), ScGrx7^WP+loop (up 2.6 µM), HsGrx5^C122S (up to 15 µM), HsGrx5^RR (up to 12 µM), HsGrx5^loop (up to 1.6 µM), and HsGrx5^RR+loop (up to 4.0 µM). For the GSSCys assays, GSH was varied between 50 µM and 1.5 mM at fixed GSSCys concentrations (25, 50, 100, and 150 µM). NADPH, GSH, and GR were mixed in assay buffer before Grx was added and a baseline was recorded for 30 s. All GSSCys assays were started by the addition of GSSCys. The absorbance of a reference cuvette containing all components but no Grx was measured in parallel and subtracted from the obtained Grx activity. For the [compound left out] assays, GSH was varied between 100 µM and 2.0 mM at fixed concentrations of [compound left out] (0.18, 0.37, 0.55, and 0.74 mM). NADPH, GSH, and [compound left out] were preincubated in assay buffer for 2 min before GR was added and a baseline was recorded for 30 s. All [compound left out] assays were started by the addition of enzyme. Kinetic data were analyzed in Excel and SigmaPlot 13 by nonlinear and linear regression according to Michaelis–Menten, Lineweaver–Burk, Eadie–Hofstee, and Hanes theory[11],[19],[25]. 29 Supplementary Figure 15 Supplementary Figure 15 | GSSCys assay steady-state kinetics of HsGrx5loop and HsGrx5RR+loop . (a) Hanes plots of the GSH-dependent reaction velocity at different initial concentrations of GSSCys. […] (c) Lineweaver-Burk plots of the GSSCys-dependent reaction velocity at different initial concentrations of GSH. Data points and error bars are the mean ± s.d. from three independent protein purification experiments and were plotted and fitted in SigmaPlot 13 according to Hanes, Lineweaver-Burk and Eadie-Hofstee theory. Data points in brackets were omitted from the regression analysis when the kcat app or Km app values from all four plots varied by more than 10% and converged after removal of the outlier. True kinetic constants were estimated from secondary plots in Supplementary Fig. 16 and are listed in Supplementary Table 7. Selected apparent kinetic constants from linear regression analyses of Hanes plots are listed in Supplementary Table 9. The activities of HsGrx5 and HsGrx5RR were similar to the NADPH consumption of negative controls without enzyme and could not be analyzed.

Substrate in series [2]: N[C@@H](CCC(=O)N[C@@H](CS)C(=O)NCC(=O)O)C(=O)O
The experiment in a line: purified protein, by the assay type. On the set-up: GSSCys oxidoreductase assay, GR-coupled NADPH consumption at 340 nm, apparent Km from Hanes plots. To be noted: pH 8.0, 25.0 °C. How it is done: as §1

Some values that stand alone complete this part of the results.

The values that follow come from paper PMC7138851, “Quantitative assessment of the determinant structural differences between redox-active and inactive glutaredoxins” (Nature Communications, 2020).

B1: HsGrx5 (Homo sapiens; C122S/DEL60-64/P65T/Q66G) (protein)
chain: AGSGAGGGGSAEQLDALVKKDKVVVFLKTGCGFSNAVVQILRLHGVRDYAAYNVLDDPELRQGIKDYSNWPTIPQVYLNGEFVGGSDILLQMHQNGDLVEELKKLGIHSALLDEKKDQDSK
notes: E. coli XL1-Blue, pQE30; N-terminal MRGS(H)6 tag; C122S in all constructs
In the case of B1, the Km – broadly, the concentration of substrate that gives half-maximal velocity – in series [1] (50 µM GSH) is 156 ± 19 µM; in series [1] (200 µM GSH), 563 ± 58 µM; in series [1] (500 µM GSH) it was 2703 ± 119 µM; in series [2] (50 µM GSSCys), 17.7 ± 8.9 µM; in series [2] (100 µM GSSCys), 47.6 ± 30 µM; in series [2] (150 µM GSSCys) it was 59.9 ± 15 µM. For the same protein, the Michaelis constant (Km) in series [2] (lowest tested GSSCys concentration) came out at 10.2 ± 5.3 µM. The kcat (usually the maximal rate divided by the concentration of active sites) in series [1] (50 µM GSH) is 0.24 s⁻¹; in series [1] (200 µM GSH), 0.88 ± 0.06 s⁻¹; in series [1] (500 µM GSH) it was 4.33 ± 0.21 s⁻¹.
